The supplement of paper PMC4967469
A lower IC50 marks a more sensitive line; fits outside the tested doses are given as limits. AUC sums up the same curve from the lowest dose to the 256-fold higher top dose; the more sensitive the line, the further below 1. For some of these results: Where the top dose is marked as inferred, it comes from the curve model; the source does not state it.

Legend:
Assay in all cases: Viability of human cancer cell lines after 72 h of drug (GDSC screen)
SN-38 = compound: CCc1c2c(nc3ccc(O)cc13)-c1cc3c(c(=O)n1C2)COC(=O)[C@]3(O)CC [SN-38]; conditions: top dose 0.05 µM; top dose inferred
Description: (§1)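 Human cancer cell lines in 384-well plates, medium with 10% serum, drug for 72 h over a 256-fold dose range (nine 2-fold or five 4-fold steps up to the top dose). Adherent lines were fixed and stained with the nucleic acid dye Syto60, suspension lines read with resazurin; signal relative to control wells, capped at 0 and 100%. One two-parameter sigmoid per drug and line, fitted in a mixed model over all curves with the slope shared within a line.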

Dabrafenib = compound: CC(C)(C)c1nc(-c2cccc(NS(=O)(=O)c3c(F)cccc3F)c2F)c(-c2ccnc(N)n2)s1 [Dabrafenib]; conditions: top dose 10 µM
Description: as §1

Vorinostat = compound: O=C(CCCCCCC(=O)Nc1ccccc1)NO [Vorinostat]; conditions: top dose 10 µM
Description: as §1

Axitinib = compound: CNC(=O)c1ccccc1Sc1ccc2c(/C=C/c3ccccn3)n[nH]c2c1 [Axitinib]; conditions: top dose 2 µM
Description: as §1

Methotrexate = compound: CN(Cc1cnc2nc(N)nc(N)c2n1)c1ccc(C(=O)N[C@@H](CCC(=O)O)C(=O)O)cc1 [Methotrexate]; conditions: top dose 0.2 µM
Description: as §1

| Cell Line | AUC (SN-38) | IC50 (SN-38) [nM] | AUC (Dabrafenib) | IC50 (Dabrafenib) [µM] | AUC (Vorinostat) | IC50 (Vorinostat) [nM] | AUC (Axitinib) | IC50 (Axitinib) [nM] | AUC (Methotrexate) | IC50 (Methotrexate) [nM] |
| --- | --- | --- | --- | --- | --- | --- | --- | --- | --- | --- |
| TYK-nu (ovary, adherent) | 0.439 | 2.1 | 0.773 | 4.15 | 0.646 | 1640 | 0.976 | > 2000 |  |  |
| EFM-19 (breast, adherent) | 0.824 | > 50 | 0.974 | > 10 | 0.609 | 1460 | 0.916 | > 2000 |  |  |
| A253 (head and neck, adherent) | 0.591 | 5.51 | 0.988 | > 10 | 0.745 | 3070 | 0.968 | > 2000 |  |  |
| PA-TU-8988T (pancreas, adherent) | 0.713 | 12.5 | 0.915 | > 10 | 0.86 | 8410 |  |  | 0.983 | > 200 |
| RH-41 (rhabdomyosarcoma, adherent) | 0.764 | 15.4 | 0.991 | > 10 | 0.641 | 1430 |  |  | 0.827 | 96.1 |
| D-263MG (glioma, adherent) | 0.649 | 8.83 | 0.981 | > 10 | 0.776 | 4840 |  |  | 0.971 | > 200 |
| NCI-H2052 (mesothelioma, adherent) |  |  |  |  | 0.861 | > 10000 | 0.939 | > 2000 | 0.943 | > 200 |
| SNU-C2B (large intestine, adherent) | 0.644 | 8.89 | 0.97 | > 10 | 0.762 | 4690 | 0.98 | > 2000 |  |  |
| LN-229 (glioma, adherent) | 0.55 | 4.28 | 0.969 | > 10 | 0.802 | 4910 | 0.988 | > 2000 |  |  |
| NCI-H446 (small cell lung carcinoma, semi-adherent) | 0.725 | 14.4 | 0.973 | > 10 | 0.649 | 1670 | 0.899 | > 2000 |  |  |
| AGS (stomach, adherent) |  |  |  |  | 0.492 | 597 | 0.938 | > 2000 | 0.982 | > 200 |
| KELLY (neuroblastoma, adherent) | 0.398 | 1.69 | 0.979 | > 10 | 0.607 | 1190 | 0.916 | > 2000 |  |  |
| Hey (ovary, adherent) | 0.57 | 4.79 | 0.586 | 1.06 | 0.589 | 1080 |  |  | 0.978 | > 200 |
| Daoy (medulloblastoma, adherent) | 0.242 | 0.617 | 0.985 | > 10 | 0.682 | 1910 |  |  | 0.984 | > 200 |
| RPMI-8402 (T-cell lymphoblastic leukaemia, suspension) | 0.342 | 1.23 | 0.935 | > 10 | 0.493 | 600 |  |  | 0.37 | 5.83 |
| HOS (osteosarcoma, adherent) | 0.406 | 1.81 | 0.971 | > 10 | 0.726 | 2410 |  |  | 0.989 | > 200 |

| Cell Line | AUC (SN-38) | IC50 (SN-38) [nM] | AUC (Dabrafenib) | IC50 (Dabrafenib) [µM] | AUC (Vorinostat) | IC50 (Vorinostat) [nM] | AUC (Axitinib) | IC50 (Axitinib) [nM] | AUC (Methotrexate) | IC50 (Methotrexate) [nM] |
| --- | --- | --- | --- | --- | --- | --- | --- | --- | --- | --- |
| IGR-37 (melanoma, adherent) | 0.591 | 5.42 | 0.033 | < 0.0391 | 0.5 | 625 |  |  | 0.989 | > 200 |
| GAK (melanoma, adherent) | 0.854 | 36.4 | 0.897 | > 10 | 0.802 | 4640 |  |  | 0.983 | > 200 |
| KURAMOCHI (ovary, adherent) | 0.895 | > 50 | 0.982 | > 10 | 0.809 | 6240 | 0.965 | > 2000 |  |  |
| LS-411N (large intestine, adherent) | 0.831 | 41.7 |  |  | 0.738 | 3530 | 0.945 | > 2000 |  |  |
| MY-M12 (leukaemia, suspension) |  |  |  |  | 0.472 | 518 | 0.715 | 555 | 0.565 | 19.2 |
| A4-Fuk (B-cell lymphoma, suspension) | 0.691 | 11 | 0.975 | > 10 | 0.521 | 713 | 0.838 | 1430 |  |  |
| NCI-H187 (small cell lung carcinoma, suspension) | 0.739 | 16.1 | 0.987 | > 10 | 0.636 | 1540 | 0.974 | > 2000 |  |  |
| SBC-5 (small cell lung carcinoma, adherent) | 0.576 | 4.84 | 0.987 | > 10 | 0.704 | 2060 | 0.963 | > 2000 |  |  |
| PSN1 (pancreas, adherent) | 0.683 | 9.22 | 0.778 | 3.4 | 0.725 | 2390 |  |  | 0.95 | > 200 |
| NCI-H526 (small cell lung carcinoma, suspension) | 0.477 | 2.71 | 0.989 | > 10 | 0.543 | 815 |  |  | 0.567 | 18.9 |
| NCI-H1703 (lung adenocarcinoma, adherent) | 0.719 | 15.2 | 0.948 | > 10 | 0.85 | > 10000 | 0.241 | 18.6 |  |  |
| HCC1419 (breast, adherent) | 0.979 | > 50 | 0.907 | > 10 | 0.633 | 1700 | 0.877 | > 2000 |  |  |
| HCC38 (breast, adherent) | 0.612 | 6.53 | 0.985 | > 10 | 0.887 | > 10000 | 0.968 | > 2000 |  |  |
| Calu-3 (lung adenocarcinoma, adherent) | 0.644 | 8.71 | 0.977 | > 10 | 0.8 | 6370 | 0.979 | > 2000 |  |  |
| MSTO-211H (mesothelioma, adherent) |  |  |  |  | 0.851 | 6580 | 0.968 | > 2000 | 0.915 | > 200 |
